According to US5556859A, “N-(4-pyrimidinyl)amide pesticides” (DowElanco, priority 1994, dated 1996):
At least one read-out could not be matched to a standard name with certainty.

What was measured:
Type in all cases: in vivo
Settings in all cases: foliar spray, 400 ppm or 100 ppm per scale
[1] = tested on: Erysiphe graminis tritici (powdery mildew); experiment: Greenhouse fungicide test, ERYSGT on wheat
[2] = tested on: Pyricularia oryzae (rice blast)
[3] = tested on: Puccinia recondita tritici (leaf rust); experiment: Greenhouse fungicide test, PUCCRT on wheat
[4] = tested on: Leptosphaeria nodorum (glume blotch); experiment: Greenhouse fungicide test, LEPTNO on wheat

Row | SMILES | control of disease, ERYSGT [1] | control of disease, PYRIOR [2] | control of disease, PUCCRT [3] | control of disease, LEPTNO [4]
1 | CCCCCCCCCCCCCCCCCC(=O)Nc1ccnc(CC)n1 [Compound 34] | - (0-19% control at 400 ppm) | - (0-19% control at 400 ppm) | - (0-19% control at 400 ppm) | - (0-19% control at 400 ppm)
2 | Cc1nccc(NC(=O)Cc2ccc(Oc3cccc(C(F)(F)F)c3)cc2)n1 [Compound 69, 4-(3-trifluoromethylphenoxy)phenyl-N-(2-methyl-4-pyrimidinyl)acetamide] | +++ (90-100% control at 100 ppm) | +++ (90-100% control at 100 ppm) | ++ (90-100% control at 400 ppm) | ++ (90-100% control at 400 ppm)
3 | COCc1nccc(NC(=O)Cc2ccc(Oc3ccc(C(F)(F)F)cc3)cc2)n1 [Compound 70, 4-(4-trifluoromethylphenoxy)phenyl-N-(2-(methoxymethyl)-4-pyrimidinyl)acetamide] | +++ (90-100% control at 100 ppm) | +++ (90-100% control at 100 ppm) | ++ (90-100% control at 400 ppm) | +++ (90-100% control at 100 ppm)
4 | O=C(Cc1ccc(Oc2ccc(C(F)(F)F)cc2)cc1)Nc1ccnc(C2CC2)n1 [Compound 67, 4-(4-trifluoromethylphenoxy)phenyl-N-(2-cyclopropyl-4-pyrimidinyl)acetamide] | +++ (90-100% control at 100 ppm) | + (20-89% control at 400 ppm) | ++ (90-100% control at 400 ppm) | +++ (90-100% control at 100 ppm)
